About 220 (0.56%) of roughly 39,000 compounds showed activity. The list shows a part of the results.
system: Escherichia coli K-12 BW25113; experiment: relative growth (OD600 normalised to plate interquartile mean) (fraction); higher = less growth inhibition, active = 0.2 or less; conditions: 50 µM; LB; incubation time: overnight (16-24 h)
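Also: static incubation at 37 °C against the wild-type strain, values averaged over two biological replicates.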

SMILES | relative growth
NCCc1c[nH]c2ccccc12 | inactive: 1.01
Br.COc1ccc2c(c1)C13CCCCC1C(C2)N(C)CC3 (stereo not drawn) | inactive: 1.06
NC1CC1c1ccccc1.O=S(=O)(O)O (stereo not drawn) | inactive: 1.02
COc1cc(CCN)ccc1O | inactive: 0.989
O[C@H]1[C@H]2[C@H](O)CCCN2C[C@H]1O | inactive: 1.01
N#Cc1cnccn1 | inactive: 0.89
CC(C)(C)OC(=O)N[C@H]1[C@@H]2CNC[C@@H]21 | inactive: 1
Cn1cc(CN2C[C@H]3CNC[C@H]3C2)cn1 | inactive: 0.972
Cn1cc([C@@H](O)c2ccccc2)[n+](C)c1 | inactive: 1.02
Nc1nnns1 | inactive: 0.989
CN1CCN(C(=O)OC2c3nccnc3C(=O)N2c2ccc(Cl)cn2)CC1 (stereo not drawn) | inactive: 1.06
CN(C)[C@@H]1C(=O)C(C(N)=O)=C(O)[C@@]2(O)C(O)=C3C(=O)c4c(O)cccc4[C@](C)(O)[C@H]3C[C@@H]12 | active: 0.0416
CN1CCc2cc3c(cc2C1C1OC(=O)c2c1ccc1c2OCO1)OCO3 (stereo not drawn) | inactive: 1.1
N=C(N)N/N=C/c1ccc2c(c1)OCO2 | inactive: 0.984
COc1cc2c(cc1OC)C1CC(=O)C(CC(C)C)CN1CC2 (stereo not drawn) | inactive: 0.989
Cc1nc2c(=O)n(C)c(=O)nc-2n(C)n1 | active: 0.0393
COc1ccc([C@@H](CN)C(C)C)cc1OC | inactive: 1.01
COC(=O)[C@H]1CNCCN1c1ccccc1 | inactive: 0.984
Cc1cccc(C)c1NC1=NCCCS1 | inactive: 1
CC(C)NC(=O)C1=NO[C@]2(CCNC2)C1 | inactive: 0.997
O=C(CCCN1CCC2(CC1)C(=O)N(Cc1cccc(F)c1)CN2c1ccccc1)c1ccc(F)cc1 | inactive: 0.979
C/C(=C\[C@@H](N)C(=O)O)CP(=O)(O)O | inactive: 1.02

SMILES | relative growth
COC(=O)[C@@H]1[C@@H](CO)[C@@H]2Cn3c(ccc(C4=CCCC4)c3=O)[C@H]1N2S(=O)(=O)c1cn(C)cn1 | inactive: 0.978
Br.COC(=O)C1=CCCN(C)C1 | inactive: 1.05
COc1ccc(OC(=O)N(C)C[C@@H]2OCc3ccccc3-c3c(n(C)c4ccccc34)C(=O)N([C@H](C)CO)C[C@H]2C)cc1 | inactive: 1.03
O=C1C=C2C(=CCO[C@@H]2O)O1 | inactive: 1
O=S(=O)(N[C@H]1CCO[C@]2(CCNC2)C1)C1CC1 | inactive: 1.01
CC(N)C(O)c1ccccc1.Cl (stereo not drawn) | inactive: 1.06
CCC(C(=O)[O-])C1CCC(C)C(C(C)C(O)C(C)C(=O)C(CC)C2OC3(C=CC(O)C4(CCC(C)(C5CCC(O)(CC)C(C)O5)O4)O3)C(C)CC2C)O1.[Na+] (stereo not drawn) | inactive: 0.729
CC1(C)S[C@@H]2[C@H](N)C(=O)N2[C@H]1C(=O)O | inactive: 1.01
CC[C@@]1(O)C[C@H](O[C@H]2C[C@H](N(C)C)[C@H](O)[C@H](C)O2)c2c(cc3c(c2O)C(=O)c2c(O)ccc(O)c2C3=O)[C@H]1C(=O)OC | inactive: 1.06
NC(=O)CN1CCCC1=O | inactive: 0.984
O=C(CN1CCOCC1)c1ccc(O)cc1O | inactive: 1
COc1cc2c(cc1OC)C(C)NCC2 (stereo not drawn) | inactive: 0.987
Cc1cccc(Cc2c[nH]cn2)c1C.Cl | inactive: 1.1
CCN1C[C@@]2(C)CC[C@H](OC)C34[C@@H]2[C@H](O)[C@]2(OCO[C@@]25C[C@H](OC)[C@H]2C[C@]3(O)[C@@H]5[C@H]2O)[C@@H]14 | inactive: 0.985
O=c1[nH]c2cc(N3CCNCC3)ccc2o1 | inactive: 1
O=C(NN=Cc1ccc([N+](=O)[O-])o1)c1cc([N+](=O)[O-])cc([N+](=O)[O-])c1O | inactive: 1.12
CN(C)C(=O)[C@H]1CCC2(CCNCC2)CO1 | inactive: 0.989
CC(C)CC1C(=O)N2CCCC2C2(O)OC(NC(=O)C3C=C4c5cccc6[nH]c(Br)c(c56)CC4N(C)C3)(C(C)C)C(=O)N12.CS(=O)(=O)O (stereo not drawn) | inactive: 1.07
[N-]=[N+]=NCc1ccccc1C[C@]1(C(=O)NCc2ccccc2)N=C(c2ccc(OCCCO)cc2)O[C@H]1c1ccccc1N=[N+]=[N-] | inactive: 0.987
O[C@H]1C2CN3CCN(C2)CC1(c1ccccc1)C3 | inactive: 1.01
CNc1ccc(C(=O)C[C@@H](O)CC[C@@H](C)[C@H]2OC(=O)C[C@@H](O)CC(=O)C[C@@H](O)C[C@@H](O)C[C@@H](O)C[C@@H](O)C[C@@]3(O)C[C@@H](O)[C@H](C(=O)OC)[C@@H](C[C@@H](O[C@@H]4O[C@H](C)[C@@H](O)[C@H](N)[C@@H]4O)\C=C/C=C\C=C/C=C\C=C/C=C\C=C/[C@@H]2C)O3)cc1 | inactive: 1.01
CC(C)c1c(CN(C)C(C)Cc2ccccc2)n(C)n(-c2ccccc2)c1=O (stereo not drawn) | inactive: 0.998

SMILES | relative growth
Cc1noc(C)c1C(=O)N1C[C@@H]2CCN[C@@H]2C1 | inactive: 1.02
CC(C)(C)CC(=O)N1C[C@H]2C[C@@H]1CN2 | inactive: 1.02
Oc1ccc(Cl)cc1 | inactive: 1
O=P1(NCCCl)OCCCN1CCCl (stereo not drawn) | inactive: 0.905
CC(=O)Oc1ccc(Cl)c2cccnc12 | active: 0.0572
CC12CCC(=O)C=C1CCC1C2CCC2(C)C(O)CCC12 (stereo not drawn) | inactive: 1.01
Cn1cnc(CCN)c1 | inactive: 0.962
O=C1NCC2(CNC2)O1 | inactive: 0.873
Nc1ccccc1N1CCNCC1 | inactive: 0.985
COC(=O)[C@@H]1[C@@H](CO)[C@@H]2Cn3c(cccc3=O)[C@H]1N2C(=O)C1CC1 | inactive: 0.984
O[C@@]12CCCC[C@@H]1CNCC2 | inactive: 1.03
C[C@@H]1O[C@@H](O[C@H]2CC[C@]3(C=O)[C@H]4CC[C@]5(C)[C@@H](C6=CC(=O)OC6)CC[C@]5(O)[C@@H]4CC[C@]3(O)C2)[C@H](O)[C@H](O)[C@H]1O | inactive: 1
CC(=O)O[C@@]12CO[C@@H]1C[C@H](O)[C@@]1(C)C(=O)[C@H](O)C3=C(C)[C@@H](OC(=O)[C@H](O)[C@@H](NC(=O)c4ccccc4)c4ccccc4)C[C@](O)([C@@H](OC(=O)c4ccccc4)[C@H]21)C3(C)C | inactive: 0.996
CC12CCC3C(CCC4CC(=O)CCC43C)C1CCC2=O (stereo not drawn) ["5alpha-ANDROSTAN-3,17-DIONE"] | inactive: 0.862
Cc1cccnc1N1CCNCC1 | inactive: 1.01
O/N=C1\CN2CCC1CC2 | inactive: 0.998
CO[C@H]1[C@H](O)[C@@H](O[C@H]2[C@@H](C)O[C@@H](O[C@H]3[C@H](C)O[C@H](O[C@H]4CC[C@@]5(C)[C@@H](CC[C@@]6(O)[C@@H]5C[C@@H](O)[C@]5(C)[C@]6(O)CC[C@@]5(O)[C@@H](C)O)C4)C[C@@H]3OC)C[C@H]2OC)O[C@@H](C)[C@H]1O | inactive: 0.983
C[C@@H]1CN([C@H](C)CO)C(=O)CCCn2cc(nn2)CO[C@H]1CN(C)C(=O)Oc1ccc2ccccc2c1 | inactive: 0.998
COCCN1[C@@H]2CC[C@H]1CN(c1ncccn1)C2 | inactive: 1.03
C[C@H]1[C@H](O)[C@@H](C)/C=C\C=C/CC\C=C/C=C\C=C/C=C\[C@@H](O[C@@H]2O[C@H](C)[C@@H](O)[C@H](N)[C@@H]2O)C[C@H]2O[C@@](O)(C[C@@H](O)[C@@H]2C(=O)O)C[C@@H](O)[C@@H](O)CC[C@@H](O)C[C@@H](O)C[C@@H](O)CC(=O)O[C@H]1C | inactive: 1.01
CN(C)C(=O)Oc1ccc[n+](C)c1 | inactive: 1.01
NCC[C@H]1COc2ccccc2O1 | inactive: 0.972

SMILES | relative growth
Cc1nccc2c1[nH]c1ccccc12 | inactive: 1.03
COC(N)=O | inactive: 0.989
c1ccc(-c2ccncc2)cc1 | inactive: 1.01
CCN1CCN(c2nc([N+](=O)[O-])nn2C)CC1 | inactive: 0.996
Nc1ncnc2c1ncn2CCOCP(=O)(O)O | inactive: 0.982
Nc1ccc(-c2ccc(N)cc2)cc1 | inactive: 1.03
OCCN(CCO)CCO | inactive: 0.97
Cc1n[nH]c(=O)nc1N1CCN(C)CC1 | inactive: 1.02
C[C@H](CO)N1C[C@H](C)[C@@H](CN(C)C(=O)Oc2ccc3ccccc3c2)OCc2cnnn2CCCC1=O | inactive: 1.01
C[C@H]1O[C@H](C[N+](C)(C)C)C[C@@H]1O | inactive: 1.01
C[C@@H]1CN([C@H](C)CO)C(=O)CCCn2nncc2CO[C@@H]1CN(C)C(=O)Oc1cccc2ccccc12 | inactive: 1
Cc1csc(CCN)n1 | inactive: 1.01
CC1=NCCN=C(C)C1N1CCOCC1 | inactive: 0.862
CN1C[C@@H](NC(=O)C2CC2)[C@H]2OCCC[C@H]21 | inactive: 0.993
CC1(C)[C@@H](C=C(Br)Br)[C@@H]1C(=O)O[C@@H](C#N)c1cccc(Oc2ccccc2)c1 | inactive: 0.993
CCCNC(=O)C1=NO[C@]2(CCNC2)C1 | inactive: 0.977
C=CCN1CCC23c4c5ccc(O)c4OC2C(=O)CCC3(O)C1C5.Cl (stereo not drawn) | inactive: 1.11
c1cc2c(cc1CN1CCNCC1)OCO2 | inactive: 0.976
NCCN1CCN(c2ccc(F)cc2)CC1 | inactive: 0.993
CC(C)(C)[C@H]1CC[C@@]2(CC1)C[C@@H](C[Si](C)(C)C)OO2 | inactive: 0.996
C[C@@H]1CCC(=O)O1 | inactive: 0.988
Cc1c(N)nc([C@H](CC(N)=O)NC[C@@H](N)C(N)=O)nc1C(=O)N[C@H](C(=O)N[C@@H](C)[C@H](O)[C@@H](C)C(=O)N[C@@H](C(=O)NCCc1nc(-c2nc(C(=O)NCCC[S+](C)C)cs2)cs1)[C@@H](C)O)[C@@H](O[C@H]1O[C@H](CO)[C@H](O)[C@@H](O)[C@H]1O[C@H]1O[C@H](CO)[C@@H](O)[C@H](OC(N)=O)[C@@H]1O)c1cnc[nH]1 | active: 0.0324
